Targets include 4-1BB-huFc (UniProt Q07011 24-186); 4-1BB-moFc (UniProt Q07011 24-186); CD40-moFc (UniProt P25942 partial chain).
What all share (assay): ELISA
For orientation: An ELISA detects its analyte on a solid surface through an enzyme-linked reagent.

The next experiment deals with T1, CD27-moFc (UniProt P26842 20-191).
T1 sequence (looked up): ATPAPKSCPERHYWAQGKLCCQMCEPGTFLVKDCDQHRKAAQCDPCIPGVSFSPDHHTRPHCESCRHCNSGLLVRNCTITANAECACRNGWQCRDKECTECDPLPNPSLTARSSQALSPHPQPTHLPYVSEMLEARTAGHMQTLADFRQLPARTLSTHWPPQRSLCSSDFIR

Experiment [1] addresses 4-1BB (immobilized receptor, TNFRSF-Fc fusion protein, Figure 4a) (UniProt Q07011 24-186).
The target in experiment [2] is T2, OX40 (immobilized receptor, TNFRSF-Fc fusion protein, Figure 4a) (UniProt P43489 29-214).
T2 sequence (looked up): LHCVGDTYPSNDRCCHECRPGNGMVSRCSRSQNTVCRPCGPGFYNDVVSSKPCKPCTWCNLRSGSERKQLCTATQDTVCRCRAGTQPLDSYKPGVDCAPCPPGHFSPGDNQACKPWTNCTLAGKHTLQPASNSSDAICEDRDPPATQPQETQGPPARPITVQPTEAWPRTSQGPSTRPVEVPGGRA

The next experiment deals with T3, OX40-moFc (UniProt P43489 29-214).
T3 sequence (looked up): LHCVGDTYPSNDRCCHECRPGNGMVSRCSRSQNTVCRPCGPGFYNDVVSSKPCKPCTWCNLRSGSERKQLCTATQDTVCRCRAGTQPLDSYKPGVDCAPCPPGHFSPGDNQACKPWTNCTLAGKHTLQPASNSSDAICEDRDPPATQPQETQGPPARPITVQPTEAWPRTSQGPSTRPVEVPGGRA

In general, EC50 refers to the concentration that produces a half-maximal response.

Chain of CD40-moFc (P25942 21-193): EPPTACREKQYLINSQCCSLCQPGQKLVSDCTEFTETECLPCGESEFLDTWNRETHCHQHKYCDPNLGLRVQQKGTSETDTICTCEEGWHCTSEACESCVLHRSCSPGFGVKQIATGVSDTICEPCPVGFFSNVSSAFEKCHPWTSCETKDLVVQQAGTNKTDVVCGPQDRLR

B1: sc4-1BBL-scCD27L-Fc (Fc fusion, human)
chain 1: [about 200 residues not printed]GGGGSGGGGSGGGGSGGGGSREGPELSPDDPAGLLDLRQGMFAQLVAQNVLLIDGPLSWYSDPGLAGVSLTGGLSYKEDTKELVVAKAGVYYVFFQLELRRVVAGEGSGSVSLALHLQPLRSAAGAAALALTVDLPPASSEARNSAFGFQGRLLHLSAGQRLGVHLHTEARARHAWQLTQGATVLGLFRVTPEIPAGLPSPRSEGGGGSGGGGSGGGGSGGGGSREGPELSPDDPAGLLDLRQGMFAQLVAQNVLLIDGPLSWYSDPGLAGVSLTGGLSYKEDTKELVVAKAGVYYVFFQLELRRVVAGEGSGSVSLALHLQPLRSAAGAAALALTVDLPPASSEARNSAFGFQGRLLHLSAGQRLGVHLHTEARARHAWQLTQGATVLGLFRVTPEIPAGLPSPRSE
chain 2: SLGWDVAELQLNHTGPQQDPRLYWQGGPALGRSFLHGPELDKGQLRIHRDGIYMVHIQVTLAICSSTTASRHHPTTLAVGICSPASRSISLLRLSFHQGCTIASQRLTPLARGDTLCTNLTGTLLPSRNTDETFFGVQWVRPGGSLGWDVAELQLNHTGPQQDPRLYWQGGPALGRSFLHGPELDKGQLRIHRDGIYMVHIQVTLAICSSTTASRHHPTTLAVGICSPASRSISLLRLSFHQGCTIASQRLTPLARGDTLCTNLTGTLLPSRNTDETFFGVQWVRPGGSLGWDVAELQLNHTGPQQDPRLYWQGGPALGRSFLHGPELDKGQLRIHRDGIYMVHIQVTLAICSSTTASRHHPTTLAVGICSPASRSISLLRLSFHQGCTIASQRLTPLARGDTLCTNLTGTLLPSRNTDETFFGVQWVRP
Take B1: the EC50 in the experiment with 4-1BB-huFc was found to be 200 pM; in the experiment with 4-1BB-moFc, 200 pM; with CD27-moFc, 400 pM.

B2: sc4-1BBL-scOX40L-Fc (Fc fusion, human)
chain 1: [about 200 residues not printed]GGGGSGGGGSGGGGSGGGGSREGPELSPDDPAGLLDLRQGMFAQLVAQNVLLIDGPLSWYSDPGLAGVSLTGGLSYKEDTKELVVAKAGVYYVFFQLELRRVVAGEGSGSVSLALHLQPLRSAAGAAALALTVDLPPASSEARNSAFGFQGRLLHLSAGQRLGVHLHTEARARHAWQLTQGATVLGLFRVTPEIPAGLPSPRSEGGGGSGGGGSGGGGSGGGGSREGPELSPDDPAGLLDLRQGMFAQLVAQNVLLIDGPLSWYSDPGLAGVSLTGGLSYKEDTKELVVAKAGVYYVFFQLELRRVVAGEGSGSVSLALHLQPLRSAAGAAALALTVDLPPASSEARNSAFGFQGRLLHLSAGQRLGVHLHTEARARHAWQLTQGATVLGLFRVTPEIPAGLPSPRSE
chain 2: QVSHRYPRIQSIKVQFTEYKKEKGFILTSQKEDEIMKVQNNSVIINCDGFYLISLKGYFSQEVNISLHYQKDEEPLFQLKKVRSVNSLMVASLTYKDKVYLNVTTDNTSLDDFHVNGGELILIHQNPGEFCVLGGGGSGGGGSGGGGSQVSHRYPRIQSIKVQFTEYKKEKGFILTSQKEDEIMKVQNNSVIINCDGFYLISLKGYFSQEVNISLHYQKDEEPLFQLKKVRSVNSLMVASLTYKDKVYLNVTTDNTSLDDFHVNGGELILIHQNPGEFCVLGGGGSGGGGSGGGGSQVSHRYPRIQSIKVQFTEYKKEKGFILTSQKEDEIMKVQNNSVIINCDGFYLISLKGYFSQEVNISLHYQKDEEPLFQLKKVRSVNSLMVASLTYKDKVYLNVTTDNTSLDDFHVNGGELILIHQNPGEFCVL
On to B2, for which the “fold increase of binding against scDk 4-1BBLxOX40L” value in experiment [1] was found to be 4.9 fold; in experiment [2], 2.4 fold. Further, the EC50 in the experiment with 4-1BB-huFc came out at 400 pM; with 4-1BB-moFc it was 300 pM; in the experiment with OX40-moFc, 400 pM.

B3: scCD40L-sc4-1BBL-Fc (Fc fusion, human)
chain 1: GDQNPQIAAHVISEASSKTTSVLQWAEKGYYTMSNNLVTLENGKQLTVKRQGLYYIYAQVTFCSNREASSQAPFIASLCLKSPGRFERILLRAANTHSSAKPCGQQSIHLGGVFELQPGASVFVNVTDPSQVSHGTGFTSFGLLKLGGGDQNPQIAAHVISEASSKTTSVLQWAEKGYYTMSNNLVTLENGKQLTVKRQGLYYIYAQVTFCSNREASSQAPFIASLCLKSPGRFERILLRAANTHSSAKPCGQQSIHLGGVFELQPGASVFVNVTDPSQVSHGTGFTSFGLLKLGGGDQNPQIAAHVISEASSKTTSVLQWAEKGYYTMSNNLVTLENGKQLTVKRQGLYYIYAQVTFCSNREASSQAPFIASLCLKSPGRFERILLRAANTHSSAKPCGQQSIHLGGVFELQPGASVFVNVTDPSQVSHGTGFTSFGLLKL
chain 2: [about 200 residues not printed]GGGGSGGGGSGGGGSGGGGSREGPELSPDDPAGLLDLRQGMFAQLVAQNVLLIDGPLSWYSDPGLAGVSLTGGLSYKEDTKELVVAKAGVYYVFFQLELRRVVAGEGSGSVSLALHLQPLRSAAGAAALALTVDLPPASSEARNSAFGFQGRLLHLSAGQRLGVHLHTEARARHAWQLTQGATVLGLFRVTPEIPAGLPSPRSEGGGGSGGGGSGGGGSGGGGSREGPELSPDDPAGLLDLRQGMFAQLVAQNVLLIDGPLSWYSDPGLAGVSLTGGLSYKEDTKELVVAKAGVYYVFFQLELRRVVAGEGSGSVSLALHLQPLRSAAGAAALALTVDLPPASSEARNSAFGFQGRLLHLSAGQRLGVHLHTEARARHAWQLTQGATVLGLFRVTPEIPAGLPSPRSE
As for B3, in the experiment with CD40-moFc, the EC50 was found to be 400 pM.

The record behind these values is publication PMC8786347 (Oncoimmunology, 2022).
